Reference: publication PMC3517901
These are yes or no findings as the source states them, for the method shown. For some assays here: Binding seen in cells or lysates may run through a third protein. Some entries that bind do so weakly or less than the wild type. Tags and fused reporters may be left off the sequences shown.

Chains of the proteins cited; added tags and fusions are not shown. Lines headed by an entry give the natural chain unless they say otherwise; changes in a name come on top. A line that says so, or that is headed by a name, gives the form on record, which may keep a tag or linker. Residues count along the entry.
UniProt P49815: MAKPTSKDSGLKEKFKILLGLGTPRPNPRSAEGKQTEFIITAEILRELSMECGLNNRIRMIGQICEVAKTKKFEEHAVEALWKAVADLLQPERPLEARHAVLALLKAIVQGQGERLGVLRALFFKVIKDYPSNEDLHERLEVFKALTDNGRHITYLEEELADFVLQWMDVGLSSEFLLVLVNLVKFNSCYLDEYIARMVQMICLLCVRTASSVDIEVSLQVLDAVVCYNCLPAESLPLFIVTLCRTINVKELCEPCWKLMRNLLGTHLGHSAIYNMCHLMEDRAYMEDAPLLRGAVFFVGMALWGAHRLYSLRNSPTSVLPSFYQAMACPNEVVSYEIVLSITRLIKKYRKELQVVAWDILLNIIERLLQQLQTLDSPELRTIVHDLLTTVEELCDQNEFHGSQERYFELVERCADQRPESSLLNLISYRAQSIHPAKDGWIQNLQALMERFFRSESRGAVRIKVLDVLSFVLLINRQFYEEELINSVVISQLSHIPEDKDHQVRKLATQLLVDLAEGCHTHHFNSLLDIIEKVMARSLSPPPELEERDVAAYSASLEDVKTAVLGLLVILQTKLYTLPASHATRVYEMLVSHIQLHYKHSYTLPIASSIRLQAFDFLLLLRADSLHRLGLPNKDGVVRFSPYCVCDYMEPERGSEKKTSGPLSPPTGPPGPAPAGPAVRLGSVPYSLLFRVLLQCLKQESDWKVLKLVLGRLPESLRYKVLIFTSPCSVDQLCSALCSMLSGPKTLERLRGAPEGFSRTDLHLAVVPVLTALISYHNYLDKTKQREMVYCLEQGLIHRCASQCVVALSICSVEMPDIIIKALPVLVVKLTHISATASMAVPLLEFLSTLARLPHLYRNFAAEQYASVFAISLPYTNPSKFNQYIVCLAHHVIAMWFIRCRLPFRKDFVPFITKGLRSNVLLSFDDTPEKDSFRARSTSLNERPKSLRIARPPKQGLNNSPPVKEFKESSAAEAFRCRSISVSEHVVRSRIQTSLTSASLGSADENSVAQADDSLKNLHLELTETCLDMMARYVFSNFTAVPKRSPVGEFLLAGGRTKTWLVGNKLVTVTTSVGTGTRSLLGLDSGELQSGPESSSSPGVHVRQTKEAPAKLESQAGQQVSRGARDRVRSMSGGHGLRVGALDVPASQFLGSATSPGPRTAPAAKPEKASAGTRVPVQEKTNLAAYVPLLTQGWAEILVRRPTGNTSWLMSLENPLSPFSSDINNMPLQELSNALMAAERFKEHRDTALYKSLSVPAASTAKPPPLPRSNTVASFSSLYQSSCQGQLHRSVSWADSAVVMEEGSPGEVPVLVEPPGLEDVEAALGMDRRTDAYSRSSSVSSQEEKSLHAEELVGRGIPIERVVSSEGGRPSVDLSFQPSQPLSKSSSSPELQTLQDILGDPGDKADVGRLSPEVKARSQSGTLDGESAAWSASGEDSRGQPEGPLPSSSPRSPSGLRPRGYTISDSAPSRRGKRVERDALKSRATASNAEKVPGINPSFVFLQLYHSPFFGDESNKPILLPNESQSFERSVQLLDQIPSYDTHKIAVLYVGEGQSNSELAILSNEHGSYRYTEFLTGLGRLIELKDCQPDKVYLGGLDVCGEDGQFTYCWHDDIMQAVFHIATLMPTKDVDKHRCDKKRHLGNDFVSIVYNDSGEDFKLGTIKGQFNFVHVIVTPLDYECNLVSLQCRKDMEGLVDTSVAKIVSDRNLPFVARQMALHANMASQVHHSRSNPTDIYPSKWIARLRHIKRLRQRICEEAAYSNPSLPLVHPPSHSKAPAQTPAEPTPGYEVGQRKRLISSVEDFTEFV
TSC2 A1153V5 (TSC2 amino acids 1-1153): residues 1-1153 of P49815
TSC2 F904V5 (TSC2 amino acids 1-904): residues 1-904 of P49815
TSC2 A614V5 (TSC2 amino acids 1-614): residues 1-614 of P49815
TSC2 M1453V5 (TSC2 amino acids 1453-1784): residues 1476-1807 of P49815
V5-tagged full-length TSC2 (P49815, form named): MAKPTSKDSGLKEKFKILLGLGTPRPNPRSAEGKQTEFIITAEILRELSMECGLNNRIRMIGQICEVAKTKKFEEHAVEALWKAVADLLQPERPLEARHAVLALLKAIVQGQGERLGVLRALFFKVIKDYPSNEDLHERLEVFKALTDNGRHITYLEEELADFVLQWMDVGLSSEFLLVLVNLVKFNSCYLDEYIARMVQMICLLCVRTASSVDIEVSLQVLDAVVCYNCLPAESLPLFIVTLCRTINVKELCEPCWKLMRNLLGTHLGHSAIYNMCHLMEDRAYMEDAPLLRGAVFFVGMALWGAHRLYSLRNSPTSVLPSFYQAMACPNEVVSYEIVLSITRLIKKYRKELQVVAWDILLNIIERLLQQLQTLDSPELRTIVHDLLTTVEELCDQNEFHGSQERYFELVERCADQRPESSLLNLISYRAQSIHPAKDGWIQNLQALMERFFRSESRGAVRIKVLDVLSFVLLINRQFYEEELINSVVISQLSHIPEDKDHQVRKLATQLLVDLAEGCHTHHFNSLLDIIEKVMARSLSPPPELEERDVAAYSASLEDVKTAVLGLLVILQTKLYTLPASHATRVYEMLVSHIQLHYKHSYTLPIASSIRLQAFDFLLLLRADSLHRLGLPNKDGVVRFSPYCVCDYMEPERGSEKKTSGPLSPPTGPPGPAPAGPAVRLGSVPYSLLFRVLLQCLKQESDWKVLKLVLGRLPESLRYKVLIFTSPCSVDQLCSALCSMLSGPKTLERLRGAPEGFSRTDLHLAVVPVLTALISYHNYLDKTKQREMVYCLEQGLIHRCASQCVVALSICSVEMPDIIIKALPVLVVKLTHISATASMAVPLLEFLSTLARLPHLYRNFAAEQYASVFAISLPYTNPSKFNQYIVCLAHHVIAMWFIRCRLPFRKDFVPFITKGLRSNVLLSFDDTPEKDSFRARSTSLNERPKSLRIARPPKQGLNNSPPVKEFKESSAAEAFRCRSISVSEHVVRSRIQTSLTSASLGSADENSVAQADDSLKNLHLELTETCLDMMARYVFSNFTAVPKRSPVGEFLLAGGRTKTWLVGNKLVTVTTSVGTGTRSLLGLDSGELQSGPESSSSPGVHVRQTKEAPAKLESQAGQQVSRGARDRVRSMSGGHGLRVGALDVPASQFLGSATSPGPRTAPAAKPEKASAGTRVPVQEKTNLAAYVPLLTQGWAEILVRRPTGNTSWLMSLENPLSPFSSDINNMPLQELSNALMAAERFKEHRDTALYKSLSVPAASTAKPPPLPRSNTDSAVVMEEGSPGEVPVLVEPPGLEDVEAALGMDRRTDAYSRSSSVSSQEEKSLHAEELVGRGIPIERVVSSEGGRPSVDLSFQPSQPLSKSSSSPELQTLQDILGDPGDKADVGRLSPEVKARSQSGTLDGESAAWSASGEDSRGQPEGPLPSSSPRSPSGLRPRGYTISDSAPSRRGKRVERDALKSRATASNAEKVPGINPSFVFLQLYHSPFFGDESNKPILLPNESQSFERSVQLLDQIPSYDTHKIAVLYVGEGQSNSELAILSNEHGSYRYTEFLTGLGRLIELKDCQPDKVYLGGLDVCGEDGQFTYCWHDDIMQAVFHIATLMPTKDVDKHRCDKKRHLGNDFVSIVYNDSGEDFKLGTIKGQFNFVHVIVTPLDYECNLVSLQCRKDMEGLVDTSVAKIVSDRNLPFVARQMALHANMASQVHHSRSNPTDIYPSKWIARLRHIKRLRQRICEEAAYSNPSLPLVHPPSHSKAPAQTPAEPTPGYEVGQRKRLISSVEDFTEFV
TSC2 M1028V5 (TSC2 amino acids 1028-1784) (P49815, form named): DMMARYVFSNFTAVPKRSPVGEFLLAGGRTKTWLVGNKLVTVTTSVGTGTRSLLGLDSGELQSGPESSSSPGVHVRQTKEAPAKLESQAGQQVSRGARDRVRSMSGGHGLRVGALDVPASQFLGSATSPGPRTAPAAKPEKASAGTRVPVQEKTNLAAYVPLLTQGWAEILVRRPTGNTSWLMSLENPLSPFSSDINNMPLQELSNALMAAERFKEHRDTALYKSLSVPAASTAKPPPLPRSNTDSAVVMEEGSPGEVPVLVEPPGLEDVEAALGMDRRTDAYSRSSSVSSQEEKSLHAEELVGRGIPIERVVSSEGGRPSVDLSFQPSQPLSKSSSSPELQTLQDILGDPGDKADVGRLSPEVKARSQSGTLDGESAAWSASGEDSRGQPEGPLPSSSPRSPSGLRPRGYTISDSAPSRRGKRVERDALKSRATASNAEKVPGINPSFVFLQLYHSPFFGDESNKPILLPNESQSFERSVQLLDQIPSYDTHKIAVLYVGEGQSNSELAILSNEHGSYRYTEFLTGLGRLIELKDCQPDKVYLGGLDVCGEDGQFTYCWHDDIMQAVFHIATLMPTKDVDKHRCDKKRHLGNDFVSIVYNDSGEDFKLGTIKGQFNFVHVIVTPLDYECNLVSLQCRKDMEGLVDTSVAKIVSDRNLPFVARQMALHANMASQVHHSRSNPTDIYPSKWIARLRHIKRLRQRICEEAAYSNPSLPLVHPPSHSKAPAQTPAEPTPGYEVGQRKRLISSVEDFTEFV

What was measured:
[1] = target: N-terminal Xpress epitope tagged TSC2 (UniProt P49815); experiment: co-IP; HEK 293T cells transfected with tagged constructs, with or without co-expressed TSC1; lysis in 50 mM HEPES pH 7.5, 10% glycerol, 1 mM DTT, 100 mM NaCl, 0.1% Triton X100; anti-V5 or anti-myc affinity beads, or anti-Xpress / anti-TSC2 with Protein A/G beads, 4°C; immunoblot
[2] = target: V5-tagged full-length TSC2 (UniProt P49815); experiment: as above
[3] = target: T1, TSC1 tagged with a C-terminal V5 epitope, Q92574; experiment: as above; conditions: remark: other sources report otherwise
T1 chain: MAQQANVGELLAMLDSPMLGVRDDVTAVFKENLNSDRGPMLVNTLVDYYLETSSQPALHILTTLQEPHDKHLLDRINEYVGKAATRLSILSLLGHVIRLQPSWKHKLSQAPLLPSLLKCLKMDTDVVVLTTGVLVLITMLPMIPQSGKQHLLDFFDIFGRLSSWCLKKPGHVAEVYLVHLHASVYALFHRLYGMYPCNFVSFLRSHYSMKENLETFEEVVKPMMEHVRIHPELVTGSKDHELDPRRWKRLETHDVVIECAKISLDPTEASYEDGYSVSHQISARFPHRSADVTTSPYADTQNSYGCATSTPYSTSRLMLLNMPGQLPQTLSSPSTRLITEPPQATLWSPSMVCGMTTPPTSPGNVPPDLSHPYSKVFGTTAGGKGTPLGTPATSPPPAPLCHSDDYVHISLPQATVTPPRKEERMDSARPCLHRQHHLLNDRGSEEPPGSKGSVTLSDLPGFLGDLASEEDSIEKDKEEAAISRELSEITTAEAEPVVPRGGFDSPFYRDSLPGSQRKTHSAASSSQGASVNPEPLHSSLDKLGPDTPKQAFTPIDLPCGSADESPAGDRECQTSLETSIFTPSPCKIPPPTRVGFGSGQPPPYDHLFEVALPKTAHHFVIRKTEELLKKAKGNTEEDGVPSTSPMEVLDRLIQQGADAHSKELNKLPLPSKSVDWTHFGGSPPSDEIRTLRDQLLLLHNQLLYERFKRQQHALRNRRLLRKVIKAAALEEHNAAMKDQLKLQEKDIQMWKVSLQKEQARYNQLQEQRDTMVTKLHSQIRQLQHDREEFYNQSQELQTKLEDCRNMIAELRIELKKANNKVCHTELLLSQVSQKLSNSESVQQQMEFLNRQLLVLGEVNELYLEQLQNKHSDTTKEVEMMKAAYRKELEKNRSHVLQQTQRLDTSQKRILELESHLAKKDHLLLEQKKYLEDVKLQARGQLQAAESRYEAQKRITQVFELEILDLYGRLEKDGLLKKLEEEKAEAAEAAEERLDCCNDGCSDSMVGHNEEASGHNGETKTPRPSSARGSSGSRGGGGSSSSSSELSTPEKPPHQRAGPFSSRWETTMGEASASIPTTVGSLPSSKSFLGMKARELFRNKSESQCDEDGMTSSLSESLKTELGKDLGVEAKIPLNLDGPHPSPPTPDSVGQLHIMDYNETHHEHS

[4] = target: T2, TSC1 tagged with a C-terminal myc epitope, Q92574; experiment: as above; conditions: remark: other sources report otherwise
T2 chain: T1 chain

[5] = target: TSC2 A1153V5 (TSC2 amino acids 1-1153) (UniProt P49815); experiment: as above
[6] = target: TSC2 A614V5 (TSC2 amino acids 1-614) (UniProt P49815); experiment: as above
[7] = target: TSC2 F904V5 (TSC2 amino acids 1-904) (UniProt P49815); experiment: as above
[8] = target: TSC2 M1028V5 (TSC2 amino acids 1028-1784) (UniProt P49815); experiment: as above
[9] = target: TSC2 M1453V5 (TSC2 amino acids 1453-1784) (UniProt P49815); experiment: as above
[10] = target: T3, TSC1-TEV-myc, released from anti-myc beads by AcTEV, Q92574; experiment: SEC; TSC1-TSC2 complex from cotransfected HEK 293T cells, purified on anti-myc affinity beads, released by AcTEV overnight at 4°C, Coomassie gel and Superose 6 gel filtration, fractions immunoblotted; both purified; conditions: remark: other sources report otherwise
T3 chain: T1 chain

B1: TSC1, co-expressed with the tagged TSC2 isoforms (Figure 2) (protein, UniProt Q92574 1-1164)
chain: T1 chain
For B1, the binding [1] was “binds” and the binding [2] was “binds”.

B2: TSC1 tagged with a C-terminal myc epitope, Q92574 1-1164 (protein)
chain: T1 chain
B2 was tested, and the binding [3] was “binds”.

B3: TSC1 tagged with a C-terminal V5 epitope, Q92574 1-1164 (protein)
chain: T1 chain
B3 was tested, and the binding [4] was “binds”.

B4: TSC1 tagged with a C-terminal myc epitope (protein, UniProt Q92574 1-1164)
chain: T1 chain
For B4, the binding [5] was “binds”, the binding [6] was “binds” and the binding [7] was “binds”. For the same binder, the binding [8] was “no binding”, the binding [9] was “no binding” and the binding [2] was “binds”.

B5: TSC1-TEV-myc, released from anti-myc beads by AcTEV, Q92574 1-1164 (protein)
chain: T1 chain
In the case of B5, the binding [10] is reported as “binds”.
